Measured values taken from PubChem BioAssay AID2675 (National Center for Advancing Translational Sciences (NCATS), 2010).
Hit rate of the full screen: of about 280,000 compounds, about 100 (0.036%) were called active. The shares of active, inactive and inconclusive entries below differ from those in the screen. Calls come from the whole dose curve; as a rule, active = well fitted inhibition curve with a large enough effect in the signal ratio, with a control signal flat (not every such curve was filed as active); inconclusive = small, poorly fitted or top-dose-only effect, or effect the other way, or a change in a side signal; inactive = no such curve, though single readings can be large or run the other way; the % refers to the signal ratio. A potency beside an inconclusive call is a rough fit, not a confirmed value. A note “side channel” means that the fit belongs to a control or component signal, not to the main read-out.

The compounds below were run against Muscleblind-like protein 1 (Homo sapiens) (UniProt Q9NR56) (assay: qHTS Assay for Inhibitors of MBNL1-poly(CUG) RNA binding). Conditions: TR-FRET MBNL1-His/biotin-(CUG)12 binding, 665/545 ratio; activity change, negative = inhibition: at 57.5 µM (top of the series).
Method in brief: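 Ratiometric TR-FRET (665 over 545 nm, excitation 340 nm) tracks disruption of MBNL1-His/biotin-(CUG)12 complex after 60 min at room temperature, with compounds at 92 nM to 58 uM final.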
% is set by controls: 0 for no effect and ±100 for the full control effect; potency is the fitted concentration of half-maximal effect; tags give direction and shape of the fitted curve or compound fluorescence and quenching.

UniProt Q9NR56, sequence (Q9NR56 whole entry, looked up): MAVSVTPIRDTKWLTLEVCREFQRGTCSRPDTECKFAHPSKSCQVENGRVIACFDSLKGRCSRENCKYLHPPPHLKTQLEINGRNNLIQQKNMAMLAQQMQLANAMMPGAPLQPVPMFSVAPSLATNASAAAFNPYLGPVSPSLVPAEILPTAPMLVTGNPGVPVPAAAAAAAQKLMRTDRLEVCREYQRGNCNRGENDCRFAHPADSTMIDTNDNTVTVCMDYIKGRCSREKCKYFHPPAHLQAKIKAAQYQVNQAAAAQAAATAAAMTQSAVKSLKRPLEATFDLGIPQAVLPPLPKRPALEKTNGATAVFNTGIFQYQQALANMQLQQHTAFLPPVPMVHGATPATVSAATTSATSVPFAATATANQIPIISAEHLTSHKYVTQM

| SMILES | Potency | activity change, negative = inhibition |
| --- | --- | --- |
| COC(=O)C1=C(C(=O)OC)[C@@H]2N(C)c3ccc(OC)cc3[C@@]23C[C@@H](C(=O)OC)N(S(=O)(=O)c2ccc([N+](=O)[O-])cc2)C3=N1 | inconclusive: 2.82 µM [quencher, side channel, partial curve] | – |
| COc1ccc(-c2nc(CS(=O)(=O)CC(=O)NC3CCCCC3C)c(C)o2)cc1 (centres undefined) | inactive | – |
| CC1CCN(C(=O)c2ccc([N+](=O)[O-])o2)CC1 | inconclusive: 17.8 µM [quencher, side channel, partial curve] | – |
| COC(CNC(=O)c1ccc2c(c1)ncn2C1CCCCCC1)OC | inactive | – |
| CCOC(=O)C1CCCN(C(=O)c2ccccc2NC(=O)C2=C(C)OCCS2)C1 (centres undefined) | inactive | – |
| O=C(/C=C/c1ccccc1)c1ccccc1 | inactive | – |
| COCCNc1ccc(N2C(=O)C3CCCCC3C2=O)cc1[N+](=O)[O-] (centres undefined) | inconclusive: 14.1 µM [quencher, side channel, partial curve] | – |
| CN1CCN(C(=O)/C(=C\c2cccs2)NC(=O)c2cccs2)CC1 | inconclusive: 25.1 µM [quencher, side channel, single point] | – |
| COc1cc(NC(=O)C2=CC(c3cccs3)=NS(=O)(=O)N2C)cc(OC)c1OC | inconclusive: 15.8 µM [quencher, partial curve] | – |
| O=C(CCN1C(=O)/C(=C/c2ccccc2)SC1=S)NC1CCS(=O)(=O)C1 (centres undefined) | inconclusive: 2.24 µM [quencher, side channel, full curve] | – |
| CCCCC1(C)OC(=O)C(=Cc2ccc(N(C)C)cc2)C(=O)O1 (centres undefined) | inconclusive: 17.8 µM [quencher, side channel, single point] | – |
| O=C1/C(=C/C=C/c2ccccc2)Oc2c1ccc(O)c2CN1CCN(CCO)CC1 | inconclusive: 14.1 µM [quencher, partial curve] | – |
| Cc1ccc(C)c(-n2c(-c3ccc(Br)cc3)csc2=NC(=O)c2ccccc2F)c1 | inconclusive: 39.8 µM [fluorescent, side channel, single point] | – |
| COc1ccc(N2CCN(C(=O)c3ccc(CSc4ccccc4)cc3)CC2)cc1 | inconclusive: 0.141 µM [quencher, side channel, partial curve, poor fit] | – |
| Cc1sc(NC(=O)CCC(=O)O)c(C(N)=O)c1-c1ccccc1 | inactive | – |
| NC(=O)c1ccc(Oc2ccc3ccc(=O)oc3c2)c([N+](=O)[O-])c1 | inconclusive: 15.8 µM [quencher, side channel, partial curve] | – |
| CS(=O)(=O)c1ccc(S(=O)CC(=O)OCc2ccccc2)c([N+](=O)[O-])c1 (centres undefined) | inconclusive: 14.1 µM [quencher, side channel, partial curve] | – |
| Cc1c(NC(=S)NC(=O)c2cccc([N+](=O)[O-])c2)c(=O)n(-c2ccccc2)n1C | inconclusive: 17.8 µM [quencher, side channel, partial curve] | – |
| CCOC(=O)c1c(-c2ccc(OC)cc2)nc2nonc2c1N | inconclusive: 3.55 µM [quencher, side channel, full curve] | – |
| COc1ccc(CCNC(=O)CCNS(=O)(=O)c2cccc3nsnc23)cc1OC | inconclusive: 14.1 µM [quencher, partial curve] | – |

| SMILES | Potency | activity change, negative = inhibition |
| --- | --- | --- |
| O=c1ccc(-c2ccc(S(=O)(=O)Nc3ccccc3Cl)o2)n[nH]1 | inconclusive: 3.55 µM [quencher, side channel, full curve] | – |
| O=C(/C(=C/c1ccc(Cl)cc1)c1nc2ccccc2[nH]1)c1ccccc1 | inactive | – |
| Cc1ccc2[nH]c(C(=O)N/N=C/c3ccccc3C(=O)O)c(-c3ccccc3)c2c1 | inconclusive: 28.2 µM [quencher, side channel, partial curve] | – |
| N#CCC(=O)N/N=C/c1c2ccccc2cc2ccccc12 | inconclusive: 28.2 µM [quencher, side channel, single point] | – |
| O=C(C[n+]1ccc(-c2cc(C(=O)Nc3cccc(C(F)(F)F)c3)c3ccccc3n2)cc1)c1cccc([N+](=O)[O-])c1 | inconclusive: 28.2 µM [quencher, side channel, partial curve] | – |
| O=C(Cn1cc([N+](=O)[O-])nc1[N+](=O)[O-])N1CCN(c2ccccc2)CC1 | inconclusive: 11.2 µM [quencher, side channel, partial curve] | – |
| CCN(C(=O)c1cc2c(=O)n3ccccc3nc2n1C)C1CCCCC1 | inconclusive: 15.8 µM [quencher, side channel, partial curve] | – |
| Cc1c(NC(=O)/C(C#N)=C/c2ccc(-c3ccc(Cl)c(Cl)c3)o2)c(=O)n(-c2ccccc2)n1C | – | inconclusive: 22.6% [phenotype inactive] |
| O=[N+]([O-])c1ccccc1NCCNc1ncc(C(F)(F)F)cc1Cl | inconclusive: 39.8 µM [quencher, side channel, single point] | – |
| O=Cc1ccc(N2CCCC2)c(F)c1 | inconclusive: 15.8 µM [quencher, side channel, partial curve] | – |
| COc1ccccc1N1CCN(c2nc3c(C)cccn3c(=O)c2C=O)CC1 | inconclusive: 25.1 µM [quencher, side channel, partial curve] | – |
| COC(=O)c1ccc(NC(=O)c2ccc3nccnc3c2)cc1 | inconclusive: 3.55 µM [quencher, full curve] | – |
| O=C1CCC(=O)N1c1cccc(-c2nc3ccccc3o2)c1 | inconclusive: 39.8 µM [fluorescent, single point] | – |
| O=C(O)c1ccc2c(=O)n3c(nc2c1)/C(=C/c1cccc(O)c1)CC3 | inconclusive: 7.08 µM [quencher, side channel, partial curve] | – |
| COc1cc(CO)c(OC)c([N+](=O)[O-])c1 | inconclusive: 25.1 µM [quencher, side channel, single point] | – |
| COc1ccc(C(=O)N2N=C3CC(C)(C)OCC3C2c2ccccc2)cc1 (centres undefined) | inconclusive: 8.91 µM [quencher, side channel, partial curve] | – |
| CCCOc1ccc(/C=N/NC(=O)c2ccc(Cn3cc([N+](=O)[O-])cn3)o2)cc1 | inactive | – |
| COc1cccc(-c2nc(Oc3cccc(C)c3C)c3ccccc3n2)c1O | inconclusive: 0.251 µM [fluorescent, side channel, full curve] | – |
| Cc1ccccc1C(=O)NCCNc1ccc([N+](=O)[O-])cc1 | inconclusive: 10 µM [quencher, side channel, partial curve] | – |
| Cc1nc(N)sc1N=Nc1c(C)n(C)n(-c2ccccc2)c1=O | inconclusive: 39.8 µM [quencher, single point] | – |

| SMILES | Potency | activity change, negative = inhibition |
| --- | --- | --- |
| N#Cc1ccc(C(=O)Nc2ccc([N+](=O)[O-])cc2)c(F)c1 | inconclusive: 2.24 µM [quencher, side channel, partial curve] | – |
| O=[N+]([O-])c1ccc(-c2nnc3cccc(Cl)n23)cc1 | inconclusive: 7.94 µM [quencher, side channel, partial curve] | – |
| COC(=O)C1=C(O)/C(=C\c2ccc(O)c(OC)c2)N=C1C | inconclusive: 28.2 µM [quencher, side channel, partial curve] | – |
| Cn1cccc1/C=C(\C#N)C(N)=S | inconclusive: 22.4 µM [quencher, side channel, single point] | – |
| CCCCC1=CC2=C(c3ccco3)C(=O)C(C)(OC(=O)c3ccc(OC)cc3)C(=O)C2=CN1Cc1ccccc1 (centres undefined) | inconclusive: 31.6 µM [fluorescent, side channel, single point] | – |
| COc1cc(CN2CCCN(C)CC2)cc([N+](=O)[O-])c1O | inconclusive: 20 µM [quencher, side channel, single point] | – |
| CCOc1ccc(-n2c(N)c(C(=O)NCc3ccco3)c3nc4ccccc4nc32)cc1 | inconclusive: 20 µM [quencher, side channel, partial curve] | – |
| CCCNC(=O)NS(=O)(=O)c1cnccc1Sc1ccc(Cl)c(Cl)c1 | inactive | – |
| COc1ccc(CC(=O)NCC2CCCN(Cc3cccc(C(F)(F)F)c3)C2)cc1 (centres undefined) | inactive | – |
| NC(=O)c1sc2nc3c(c(-c4ccccc4)c2c1N)CCC3 | inconclusive: 28.2 µM [quencher, side channel, partial curve] | – |
| CC1CCN(c2ccc([N+](=O)[O-])cn2)CC1 | inconclusive: 28.2 µM [quencher, side channel, single point] | – |
| COc1cccc(-n2nnnc2SCC(=O)Nc2ccccc2OC)c1 | inactive | – |
| NC(=O)c1nn2c(C(F)(F)F)cc(-c3ccccc3)nc2c1Br | inconclusive: 14.1 µM [quencher, side channel, partial curve] | – |
| O=Nc1c(-c2c(O)[nH]c3ccccc23)[nH]c2ccccc12 | inconclusive: 22.4 µM [quencher, side channel, partial curve] | – |
| NC(=O)N/N=C\c1cc(Br)ccc1O | inactive | – |
| O=[N+]([O-])c1ccc(N2CCOCC2)cc1O | inconclusive: 4.47 µM [quencher, side channel, full curve] | – |
| OC1=C(O)c2nc3cc(F)ccc3nc21 | inconclusive: 20 µM [quencher, side channel, partial curve] | – |
| COC(=O)c1ccc(C2/C(=C(/O)c3ccc4c(c3)CC(C)O4)C(=O)C(=O)N2Cc2cccnc2)cc1 (centres undefined) | inactive | – |
| Cc1cc(Nc2cccc(C)c2C)n2nc(C)nc2n1 | inconclusive: 158 µM [inhibitor, partial curve] | – |
